Data: patent US10752881B2, “Trans-differentiation of differentiation cells” (Helmholtz Zentrum München-Deutsches Forschungszentrum für …, priority 2014, dated 2020)

Tested on: MEFs

Q: “A-Bcl-2: S70A recombinant Bcl-2 with reduced ability to interact with Bax, mimics the un-phosphorylated form” was tested. Which “onset of spontaneous contraction” value (MyoD + A-Bcl-2 vs MyoD/GFP) did it give?
A: The value was “started to spontaneously contract consistently earlier than the MyoD/GFP transduced controls”.

Q: And the “cells with multinuclear myotube morphology” value (MyoD + A-Bcl-2 vs MyoD/GFP, 5 DPI)?
A: The value was “significantly more cells acquired a multinuclear myotube morphology”.

Q: What about the myotube length (MyoD/A-Bcl-2 vs MyoD, 5 DPI) of the same substance?
A: The myotube length was “increases the proportion of multinuclear cells (C), myotube length (D)”.
